# From article PMC4336329 (PLoS ONE, 2015)
# In all, about 310,000 compounds went through this assay and about 14,000 (4.5%) showed an effect of 50% or more. The effect is printed as a negative number. The list shows a part of the results.
# Molecular target: human ether-à-go-go-related gene (hERG) potassium channel (human, UniProt Q12809)
# Test: primary screen, population patch clamp on CHO cells stably expressing hERG
# 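Further: peak tail current of the secondary pulse compared with the same well before compound.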
# Sequence of human ether-à-go-go-related gene (hERG) potassium channel (Q12809 whole entry, looked up): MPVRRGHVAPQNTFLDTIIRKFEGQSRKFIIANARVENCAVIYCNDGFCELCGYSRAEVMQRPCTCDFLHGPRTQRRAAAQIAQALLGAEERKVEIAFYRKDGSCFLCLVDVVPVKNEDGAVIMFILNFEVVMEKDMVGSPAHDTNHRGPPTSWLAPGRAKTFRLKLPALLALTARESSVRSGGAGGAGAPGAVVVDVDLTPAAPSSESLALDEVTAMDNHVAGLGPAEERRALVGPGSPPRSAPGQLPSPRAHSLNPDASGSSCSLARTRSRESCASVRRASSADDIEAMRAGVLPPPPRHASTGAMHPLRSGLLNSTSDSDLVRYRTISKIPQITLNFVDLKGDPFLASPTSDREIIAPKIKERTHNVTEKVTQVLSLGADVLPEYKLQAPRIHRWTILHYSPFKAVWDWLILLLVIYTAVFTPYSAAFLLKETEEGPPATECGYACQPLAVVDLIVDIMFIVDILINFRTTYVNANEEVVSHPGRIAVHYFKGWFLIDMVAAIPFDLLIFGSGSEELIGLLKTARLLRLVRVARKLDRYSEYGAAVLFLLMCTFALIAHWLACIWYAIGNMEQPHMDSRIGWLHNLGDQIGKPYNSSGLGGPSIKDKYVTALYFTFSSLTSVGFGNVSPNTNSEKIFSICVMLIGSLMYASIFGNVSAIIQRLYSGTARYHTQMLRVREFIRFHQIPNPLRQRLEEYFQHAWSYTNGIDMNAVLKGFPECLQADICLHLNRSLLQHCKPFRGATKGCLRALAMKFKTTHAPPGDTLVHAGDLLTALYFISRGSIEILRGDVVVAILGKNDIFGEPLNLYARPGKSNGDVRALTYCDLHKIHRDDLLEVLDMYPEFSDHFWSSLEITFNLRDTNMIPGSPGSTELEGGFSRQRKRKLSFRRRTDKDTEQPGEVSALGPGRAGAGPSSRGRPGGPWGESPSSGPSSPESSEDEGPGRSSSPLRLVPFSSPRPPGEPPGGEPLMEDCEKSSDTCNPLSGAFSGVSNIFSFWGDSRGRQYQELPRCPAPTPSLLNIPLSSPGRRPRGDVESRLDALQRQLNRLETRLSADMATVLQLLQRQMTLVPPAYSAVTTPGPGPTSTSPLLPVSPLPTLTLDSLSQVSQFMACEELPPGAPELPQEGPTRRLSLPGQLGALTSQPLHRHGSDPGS
row,Compound,"hERG current change (%, negative = inhibition) at 10uM [%]"
1,CC(C)(C)NC(=O)CSc1nc(Cc2ccccc2)nc2ccccc12,-8.25
2,CCC(NC(=O)Nc1ncccc1C)(C(F)(F)F)C(F)(F)F,-3.33
3,CN(C)c1oc(-c2ccc(OCc3ccccc3)cc2)nc1C#N,14.7
4,COc1cccc(C(=O)NCCNC(=O)c2cnccn2)c1,19.5
5,COCCCn1c(C)nnc1SCC(=O)NCc1ccco1,16.8
6,NC(=O)CC[C@@H]1NC(=O)[C@H](CO)NC(=O)c2cc([N+](=O)[O-])cc(I)c2NCC[C@@H](C(N)=O)NC1=O,10.9
7,O=c1[nH][nH]c(-c2ccccc2)c1C=Nc1ccc(OC(F)(F)F)cc1,-28
8,CC1CCCC(C)N1C(=O)CSc1nnc(-c2cccs2)o1 (stereo not drawn),-17.1
9,CCOC(=O)c1c(C)nc2c(c1-c1ccccc1)C(=O)c1ccccc1-2,-19.8
10,CCOc1cc(/C=N/Nc2nncc(-c3ccccc3)n2)ccc1O,14.4
11,Cc1ccc(N2C(N)=NC(N)=NC23CCCC3)c(C)c1.Cl,9.39
12,C=CCn1nnnc1SCC(=O)Nc1ccc(C(=O)OC)cc1,2.41
13,CC1=CC(C)(C)N(C(=O)Nc2ccccc2)c2ccccc21,0.993
14,CCCCCc1ccc(OCCCC[n+]2ccc(C)cc2)c(CCCCC)c1.[Cl-],-77
15,CSc1nc(=S)c2[nH]c(=S)[nH]c2[nH]1,19.7
16,COc1ccccc1-c1oc2ccccc2c1C#CC1(N)CCCCC1,-3.74
17,O=c1c2ccccc2c(C=Nc2ccc(O)cc2)c(O)n1-c1nccs1,3.26
18,Cc1nnc(C)n1/N=C/c1ccc(-c2ccccc2)cc1,-23
19,COc1cc2c(c(OC)c1OC)-c1c(cc3c(c1OC)OCO3)[C@@H](OC(C)=O)[C@H](C)[C@H](C)C2,-66.8

row,Compound,"hERG current change (%, negative = inhibition) at 10uM [%]"
1,COc1ccccc1C(=O)NNC(=O)c1cccc(Cl)c1,2.83
2,COCCNC(=O)C1CC2Cn3c(nc4ccccc43)C2N1C (stereo not drawn),11.2
3,Cc1ccc(-c2nnn(CC(=O)N3C(C)CCCC3C)n2)cc1 (stereo not drawn),12
4,COCCN(CCOC)C(=O)CN1C(=O)NC(Cc2c[nH]c3ccccc23)C1=O (stereo not drawn),3.92
5,O=C(O)/C=C/c1cccc(NC(=O)Nc2ccc([N+](=O)[O-])cc2)c1,14.1
6,CCCn1c(-c2ccc(OC)cc2)nc2nc3ccccc3nc21,-2.75
7,FC(F)Oc1ccc(-n2cc(-c3ccccc3)[n+]3c2CCCCC3)cc1.[Br-],-55.6
8,O=C(c1cccc(C(F)(F)F)c1)C1CCCN(C(=O)CCc2cnccn2)C1 (stereo not drawn),-15.6
9,CN1CCN(C(=O)Cn2ncc3c([nH]c4ccccc43)c2=O)CC1,0.784
10,Cc1ccccc1NC(=O)c1ccc2nc(N3CCOCC3)sc2c1,-24.6
11,Cc1cc(=O)nc2c3ccccc3n(CC(=O)NCCCN3CCCC3=O)n12,9.15
12,CN(C)CCCN(C(=O)COc1ccc(Cl)cc1)c1nc2cc3c(cc2s1)OCCO3.Cl,-55
13,COc1ccccc1/C=C(\NC(=O)c1ccccc1)C(=O)NCc1ccco1,5.22
14,COc1ccc2c(c1)C1(Nc3ccccc3C(=O)N1c1ccccc1)C(=O)N2 (stereo not drawn),-8.68
15,CCN(CC(=O)NCc1cccs1)C(=O)/C=C/c1cccc(Br)c1,-66.8
16,Cc1csc(SCC(=O)NCCc2ccc(Cl)cc2Cl)n1,-39.7
17,COc1ccc(C2SCC(=O)N2CCc2ccc(OC)c(OC)c2)cc1 (stereo not drawn),-31.3
18,O=C(CSc1nc(NS(=O)(=O)c2ccccc2)cc(=O)[nH]1)Nc1ccccc1C(F)(F)F,9.04
19,O=C(CCC(=O)N1CCN(S(=O)(=O)c2ccccc2)CC1)NC1CCCc2ccccc21 (stereo not drawn),-13.5

row,Compound,"hERG current change (%, negative = inhibition) at 10uM [%]"
1,Cc1ccc(Nc2nc(N)nc(CCl)n2)c(C)c1,16.1
2,Cc1cc(=O)oc2cc(OC(C(=O)O)c3ccccc3)ccc12 (stereo not drawn),29.1
3,NC(=[NH2+])SCc1nc2ccccc2c(=O)n1-c1ccccc1.[Br-],-11.9
4,Cn1c(=O)c2c(nc(NCCNC(=O)c3ccco3)n2Cc2ccc(Cl)cc2Cl)n(C)c1=O,6.53
5,O=C(NCc1nc(-c2ccc(Cl)cc2)no1)c1ccc2c(c1)OCO2,1.47
6,Cc1cc(C(=O)COc2ccccc2C#N)c(C)n1C1CC1,12.4
7,O=C(O)C(O)c1ccccc1 (stereo not drawn),1.14
8,CCOC(=O)C1(CCc2ccccc2)CCN(C(=O)[C@@H]2C[C@@H](C)NC(=S)N2)CC1,6.08
9,O=C(CCNC(=O)c1ccco1)NC(Cc1c[nH]c2ccccc12)C(=O)O (stereo not drawn),9.64
10,Cc1ccc(S(=O)(=O)NCCSc2ncccn2)cc1,20.6
11,COc1cc(C(=O)Oc2cccnc2)cc(OC)c1OC.Cl,17
12,Cn1nc(C(C)(C)C)cc1C(=O)NCc1ccc(N2CCCC2=O)cc1,-14.6
13,CCN1C(=O)/C(=C\c2cn(CCC#N)nc2-c2ccc(F)cc2)SC1=S,5
14,COc1ccc(CCNC(=O)CSc2nc(O)cc(=O)[nH]2)cc1OC,9.95
15,COc1ccc(CCCc2nnc(SCC(=O)Nc3nccs3)n2C)cc1C,4.33
16,O=C(CCCOc1ccc(Cl)cc1Cl)N1CCC2(CC1)OCCO2,-39.5
17,COC(=O)COc1ccc(C2NC(=O)NC(c3ccccc3)=C2C(C)=O)cc1Br (stereo not drawn),12.8
18,C=CCN=C1CCCc2c1[nH]c1ccc(C)cc21,-8.98
19,CCOc1cccc2cc(-c3nnc(NCc4ccco4)s3)c(=O)oc12,-2.37
